Measured values as given in paper PMC12040169 (PLOS Biology, 2025).
Some of the results follow.

Tested on: T1, C. trachomatis L2/434/Bu expressing GFP (CTL2-GFP)
T1 construct: L2/434/Bu GFP intracellular growth in HeLa cells
Design: species or system HeLa; C. trachomatis total inclusion area by high-content imaging, normalised to DMSO
Details: total inclusion area; 28.5 h, 10 µM; inhibitor
In short: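 High-content imaging followed the bulk GFP/resorufin measurement: fixed, Hoechst-stained cells were scored for GFP inclusions and host nuclei per well. Total inclusion area and count served as growth proxies, nuclei number as the viability proxy. MIC calculation matched the bulk assay.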

Row | SMILES | % of control remaining
1 | Cc1cc(OC(C)C(=O)NCc2ccccn2)ccc1Cl (stereo not drawn) [CBK269617] | 76.5701
2 | O=C(CCS(=O)(=O)c1ccc(Br)cc1)OCC(=O)c1ccccc1 [CBK021886] | 95.4262
3 | CN1CCN(Cc2nc3c([nH]2)c(=O)n(C)c(=O)n3C)CC1 [CBK269578] | 72.8338
4 | CCS(=O)(=O)N1CCC(c2onc3c2CCCCC3)CC1 [CBK284497] | 78.5139
5 | CN1CCN(CCCOc2ccccc2OCc2ccccc2)CC1 [CBK269630C] | 61.7726
6 | O=C(CCC(=O)c1ccc(Cl)cc1)OCC(=O)c1cccc(I)c1 [CBK264760] | 102.384
7 | CCOC(=O)CN(Cc1ccccc1)Cc1cccc(OC)c1 [CBK126459] | 73.3068
8 | Cc1csc(C(Cc2cccs2)NC(=O)C2CCC(=O)N2)n1 (stereo not drawn) [CBK285056] | 109.009
9 | C=CCn1c(N2CCC(C(=O)NC3CC3)CC2)nc2ccccc21 [CBK283924] | 95.655
10 | O=C1CN(C(=O)c2cccc(Cl)c2)c2ccccc2N1 [CBK017844] | 62.9485
11 | Nn1c(SCC(=O)Nc2ccc3c(c2)oc2ccccc23)nnc1-c1ccc(Cl)cc1Cl [CBK265090] | 113.971
12 | CC1CC(C)CN(C(=O)c2ccccc2NC(=O)C2CC(=O)Nc3ccccc32)C1 (stereo not drawn) [CBK297760] | 111.934
13 | CNC(=O)C1(Cc2ccc(-c3ccccc3)cc2)CCN(C(=O)c2ccccc2OC)CC1 [CBK285767] | 100.114
14 | COc1ccc(C(NC(=O)N2CCN(C(=O)OCc3ccccc3)CC2)c2ccccc2C)cn1 (stereo not drawn) [CBK081469] | 97.7345
15 | Cc1cc(N2C(=O)c3ccc(C(=O)O)cc3C2=O)ccc1NC(=O)c1cccs1 [CBK265415] | 111.779
16 | Cc1cc(NC(=O)CC2CCCCC2)nc2c1c(=O)oc1ccccc12 [CBK291151] | 110.856
17 | CN(C)CCN(Cc1ccncc1)Cc1ccc(F)cc1F [CBK283094] | 97.3164
18 | O=C(O)CC1(CC(=O)N2CCN(C(c3ccccc3)c3ccccc3)CC2)CCCC1 [CBK086174] | 102.773
19 | Cc1nc(-c2ccc(Cl)cc2)sc1C(=O)N1CCCC(C(=O)O)C1 (stereo not drawn) [CBK304407] | 53.6296
20 | O=C(Nc1ccccc1N1CCNCC1)c1ccoc1 [CBK029442T] | 114.847
21 | CCOC(=O)c1cccc(NS(=O)(=O)c2ccc(Br)cc2)c1 [CBK034346] | 65.7991

Row | SMILES | % of control remaining
22 | Cc1cc(-c2ccccc2)nn1C(CC(=O)O)C(=O)O (stereo not drawn) [CBK263480] | 46.9723
23 | Cc1c(N)c(=O)n2nc(C(F)(F)F)nc2n1C [CBK020172] | 102.849
24 | Cc1cc(NS(=O)(=O)c2ccc(NC(=S)NC(=O)C(C)(C)C)cc2)no1 [CBK268877] | 38.7909
25 | O=S(=O)(c1ccc(F)cc1)N1CCN(c2ncnc3scc(-c4ccccc4)c23)CC1 [CBK264864] | 118.939
26 | CCNc1cccnc1N(CC)C1CCN(C(=O)c2cc3cc4c(cc3[nH]2)OCO4)CC1 [CBK016815] | 102.016
27 | CCNC(=O)Nc1ncc(-c2ccc(OC(F)(F)F)cc2)c2cccnc12 [CBK070690] | 90.5766
28 | O=C(O)C1CCC1C(=O)N1CCN(c2ccc(C(F)(F)F)cn2)CC1 (stereo not drawn) [CBK057147] | 89.3042
29 | CCOc1ccc(S(=O)(=O)N(C)CC(=O)N2CCN(C)CC2)cc1 [CBK269953] | 40.0904
30 | CNS(=O)(=O)c1ccc(NC(=O)c2cc(-c3cccnc3)nc3ccc(Br)cc23)cc1 [CBK267776] | 102.785
31 | CC(=O)Nc1ccc(C(=O)N/C(=C/c2ccccc2)C(=O)O)cc1 [CBK265353] | 86.5493
32 | O=C1CCC(=O)N1CCn1c(=O)n(S(=O)(=O)c2ccc(-c3ccccc3)cc2)c2ccccc21 [CBK106494] | 101.475
33 | COc1ccc(C(CC(=O)c2ccc(C)cc2)Nc2ccc([N+](=O)[O-])cc2)cc1 (stereo not drawn) [CBK268187] | 81.4695
34 | Cc1cc(C(=O)NC2CCCOC2)c2cccc(Cl)c2n1 (stereo not drawn) [CBK282459] | 126.287
35 | CC(=O)c1cc(C(=O)Nc2cnn(Cc3ccc(F)cc3)c2)cs1 [CBK282528] | 99.4891
36 | CN(Cc1ccc2ncccc2c1)C(=O)C1CN(S(=O)(=O)c2ccc(F)cc2)C1 [CBK285943] | 88.0653
37 | COc1ccc(C(=O)N2CCC(C)CC2)cc1[N+](=O)[O-] [CBK074341] | 92.6829
38 | CC1CCCN(C(=O)CCn2c(C(F)F)cc3cccnc32)C1 (stereo not drawn) [CBK285025] | 92.7075
39 | C(=N/OCc1ccccc1)/c1c[nH]c2ccccc12 [CBK168629] | 79.6894
40 | CCC(C)N(C)CCNC(=O)Nc1ccc(F)c(-n2nnnc2C)c1 (stereo not drawn) [CBK305176] | 38.5124
41 | C[C@H](Nc1cncc(-c2ccccc2CO)n1)c1ccccc1 [CBK065520] | 95.6142
42 | COc1ccc(OC)c(NC(=O)CSc2nnc(-c3ccncc3)s2)c1 [CBK269209] | 110.752

Row | SMILES | % of control remaining
43 | Cn1ncc2c1CCCN(C(=O)COc1ccccc1F)C2 [CBK285324] | 118.732
44 | CSc1nc(-c2ccccc2)nc(N)c1C(C)=O [CBK270762] | 133.709
45 | Oc1[nH]nc2c1CCC2 [CBK260873] | 85.662
46 | CC(=O)Nc1ccc(CCC2(NC(=O)C3CC3)CCCCC2)cn1 [CBK282290] | 89.058
47 | CN1CCN(NC(=O)c2cc(-c3ccc(Cl)cc3)[nH]n2)CC1 [CBK116553] | 91.0742
48 | O=C(Nc1nc2c(s1)CCCC2)c1ccccc1 [CBK287326] | 99.9131
49 | CC(C)Oc1ccc(CCNC(=N)NC(=N)N)cc1Cl [CBK263966] | 64.3372
50 | CC(C)(O)C1CCCN(C(=O)c2coc(COc3cccc(F)c3)n2)C1 (stereo not drawn) [CBK306977] | 100.651
51 | Cn1c(SCCC(=O)O)nnc1-c1cccnc1 [CBK269077] | 76.1433
52 | NC(=O)CN1CC2(CCNCC2)c2ccccc21 [CBK116314] | 93.5074
53 | N=C1NC(=O)/C(=C/c2c(OS(=O)(=O)c3ccc(Cl)cc3)ccc3ccccc23)S1 [CBK265311] | 101.668
54 | O=C(c1sc2ccccc2c1C1CCN(Cc2ccccc2F)C1)N1CCOCC1 (stereo not drawn) [CBK286260] | 105.521
55 | O=C(C1CCC1)N1CCC(c2nnc3n2CCCCC3)CC1 [CBK284625] | 125.624
56 | OCCN1CCN(CC(O)COCC2COc3ccccc3O2)CC1 (stereo not drawn) [CBK027374C] | 88.3677
57 | N#CCCN(C(=O)NCc1ccc(F)cc1)C1CCCCC1 [CBK156372] | 77.168
58 | O=C(NC1CC(=O)N(CCc2ccc(F)cc2)C1)c1cn2ccsc2n1 (stereo not drawn) [CBK307263] | 25.0433
59 | CC(=O)N1CCC(c2c(C(=O)Nc3cccc(CN4CCCC4)c3)sc3ccccc23)C1 (stereo not drawn) [CBK285892] | 78.7064
60 | Fc1cccc(-c2nccnc2NCCc2c[nH]c3ccccc23)c1 [CBK036861] | 114.322
61 | O=C(O)CC1S\C(=N/N=C\C=C/c2ccccc2)N(c2ccc(O)cc2)C1=O (stereo not drawn) [CBK263688] | 110.963
62 | Cc1sc2nc(SCc3cc(O)[nH]n3)nc(N)c2c1C [CBK264585] | 108.84
63 | N=c1n(CC(=O)O)c2ccccc2n1Cc1ccc(Cl)cc1 [CBK262897B] | 93.2868

Row | SMILES | % of control remaining
64 | O=C(Nc1cc([N+](=O)[O-])ccc1O)c1ccc2c(c1)C(=O)N(Cc1cccnc1)C2=O [CBK266770] | 90.0697
65 | Cc1cnc(C)c(N2CCN(C(=O)NCCSc3nncn3C)CC2)n1 [CBK306531] | 86.5346
66 | CN(C)CCn1c(=O)oc2ccc(NC(=O)C3CCCO3)cc21 (stereo not drawn) [CBK304913] | 38.4925
67 | CCn1c2cc(C)sc2c2cnn(CC(=O)OC)c(=O)c21 [CBK284186] | 79.8187
68 | Cc1cc(C)n(-c2cccc(CN3CCC(CO)C3)c2)n1 (stereo not drawn) [CBK282928] | 110.027
69 | O=C(O)Cc1ccc(-n2c(S)nnc2-c2ccncc2)cc1 [CBK268860] | 105.674
70 | O=C1CC(Nc2ccc(N3CCOCC3)cc2)C(=O)N1CCc1ccccc1 (stereo not drawn) [CBK269339] | 62.1494
71 | O=C(Nc1cccc2ccccc12)O[C@@H]1CO[C@H]2[C@@H]1OC[C@@H]2NC(=O)c1cccs1 [CBK289468] | 86.4049
72 | Oc1cccc(/C=N/c2ccc(Cc3ccc(/N=C/c4cccc(O)c4)cc3)cc2)c1 [CBK261230] | 91.0098
73 | c1ccc2c(c1)OCC(COc1ccnc(N3CCCN(CC4CCCCC4)CC3)n1)O2 (stereo not drawn) [CBK083982] | 43.6869
74 | Nc1ncc(-c2cccc(C(=O)O)c2)nc1N1CCOCC1 [CBK063415] | 116.017
75 | CCCC/C=C/c1cncc(NCc2cccc(Cl)c2)n1 [CBK065293] | 111.954
76 | O=C(O)COc1cccc2ccccc12 [CBK218704] | 123.19
77 | Cc1cc(C)cc(NC(=O)CC2Sc3ccccc3NC2=O)c1 (stereo not drawn) [CBK266384] | 127.789
78 | CCCNC(CC(=O)Nc1ccccc1)C(=O)O (stereo not drawn) [CBK266819] | 108.699
79 | CCC1CCc2c(sc(NC(=O)C3C4CCC(C4=C(C)C)C3C(=O)O)c2C(=O)OC)C1 (stereo not drawn) [CBK265424] | 102.254
80 | O=C(O)COc1ccc(-c2nnn(CC(=O)O)n2)cc1 [CBK267124] | 121.923
81 | Cc1c(C(=O)O)sc(S(=O)(=O)N2CCN(C(=O)Cc3ccccc3Cl)CC2)c1C(=O)O [CBK297137] | 88.9393
